Out of some 340,000 compounds screened, about 6,900 (2%) were called active. No stated cut-off is given here; in the data, active means inhibition above about 30%; inactive means below that, where a call was filed. Only a part is listed here, and it is no random draw. Entries without a call were filed so in the source.

A word on the inhibition: it is the change of the read-out against control, counted positive when it falls.

The test concerns the target D(2) dopamine receptor (Homo sapiens) (UniProt P14416). Put plainly: HTS Assay for Allosteric Antagonists of the Human D2 Dopamine Receptor: Primary Screen for Antagonists. Further: 0% is about no effect. As to conditions: HEK293 TREx D2 cells, calcium flux, dopamine EC80; at 10 µM; stronger effect = higher value. The gist of the method: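 Compounds are added to dye-loaded, induced HEK293 T-REx cells coupled to calcium release via D2; after a 3 min kinetic read an EC80 dopamine stimulus is given and fluorescence is recorded for 3 more min.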
Sequence of UniProt P14416 (P14416 whole entry, looked up): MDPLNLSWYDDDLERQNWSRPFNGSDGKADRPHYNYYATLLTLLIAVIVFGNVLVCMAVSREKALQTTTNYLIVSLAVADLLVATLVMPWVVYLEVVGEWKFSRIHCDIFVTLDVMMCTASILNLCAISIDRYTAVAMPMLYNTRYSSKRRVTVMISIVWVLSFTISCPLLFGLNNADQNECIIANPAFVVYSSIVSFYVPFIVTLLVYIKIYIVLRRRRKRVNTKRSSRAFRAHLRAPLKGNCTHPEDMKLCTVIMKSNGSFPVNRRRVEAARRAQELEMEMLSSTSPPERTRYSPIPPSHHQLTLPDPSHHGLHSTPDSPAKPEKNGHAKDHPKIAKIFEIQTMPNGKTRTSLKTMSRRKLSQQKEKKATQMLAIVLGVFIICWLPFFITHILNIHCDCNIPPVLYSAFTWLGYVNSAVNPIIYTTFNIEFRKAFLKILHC
A general note: Calcium assays in cells follow changes in intracellular calcium, usually with a dye or a luminescent sensor.
Consider `CC(C)C(=O)Nc1ccc2c(c1)nc(CCN1CCN(c3ccccn3)CC1)n2C`, for which the inhibition is active: 32.6%. With `Cc1ccccc1CN1C[C@@H]2C[C@@H](c3cnc(N4CCOCC4)s3)N3CCC[C@@]23C1=O` the figure was active: 36.7%; with `Cn1cc(C(=O)NCCc2ccc(Cl)cc2)c(=O)c2cc(S(=O)(=O)N3CCOCC3)ccc21`, -1.57%. As to `COc1ccc(CNC(=O)CCCc2nnc3n(CCC(C)C)c(=O)c4sccc4n23)cc1`, the inhibition is -2.02%.

For `O=c1[nH]c(C2CCCN(S(=O)(=O)c3ccccc3Cl)C2)nc2c1nnn2Cc1ccc(OC(F)(F)F)cc1` (stereo not given), the inhibition was determined as 3.22%.

In the case of `Cc1ccc(CCNC(=O)C2CC(=O)N(CCc3ccccc3)C2)cc1` (stereo not given), the inhibition is -1.18%. In the case of `COc1ccc(CCNC(=O)c2ccc3c(c2)c(C)c(C)n3Cc2ccccc2)c(OC)c1OC`, the inhibition was determined as 7.99%. With `CCc1nn(CCCC(=O)N2CCN(c3ccc(OC)cc3)CC2)c(=O)c2cc3occc3n12`, the inhibition was -4.29%. Consider `CCOc1cc(C(=O)Nc2ccc(-c3nc4cc(Cl)ccc4o3)cc2)cc(OCC)c1OCC`, for which the inhibition amounted to 4.26%. Consider `CC1CCCCN1C(=O)CSc1n[nH]c(-c2ccccc2)n1` (stereo not given), for which the inhibition is 5.24%. For the molecule `CC(=O)c1cccc(-n2c(=O)c3c4c(sc3n(CC(=O)c3ccc(Cl)cc3)c2=O)CN(C(C)=O)CC4)c1`, the inhibition was -8.88%.

With `Cc1cccc(C(=O)N(Cc2ccco2)Cc2ccccc2F)c1`, the inhibition is 5.49%. Turning to `CCN(CC)c1ccc(/C=N/NC(=O)CNC(=O)c2ccc3c(c2)OCCO3)cc1`, the inhibition was active: 33%. With `COc1cccc(C2C(=O)N(C3CCCCC3)CC(=O)N2Cc2ccc(Cl)cc2)c1` (stereo not given) the figure was -7.88%. Take `Cc1cc(NC(=O)N2CCC(CN3CCOCC3)CC2)ccc1Br`: the inhibition is 9.71%.

`Cc1ccc(NC(=O)Cn2c(=O)oc3cc(S(=O)(=O)N4CCC(C)CC4)ccc32)cc1Cl`: the inhibition is -0.754%. The figure for `Cc1ccc2c(c1)C(=O)OC(C(=O)Nc1ncc(Cc3ccccc3)s1)C2` (stereo not given) is 9.17%; for `CCc1ccc(C2C(C(=O)Nc3ccc(Cl)cc3)=C(C)Nc3ncnn32)cc1` (stereo not given) it is -2.97%. `COc1cccc(-c2nc3c(c(C)nn3-c3ccccc3)c3cc(OC)c(OC)cc23)c1`: the inhibition came to 5.31%. For the molecule `CCNc1nc(Oc2ccc(=O)n(-c3ccccc3)n2)nc(N(C)C)n1`, the inhibition is -4.54%. In the case of `COc1ccc(N2CCN(C(=O)c3cc4cc5ccc(Cl)cc5nc4o3)CC2)cc1`, the inhibition is 17.3%.

With `COc1ccc(C)cc1S(=O)(=O)NCC(c1ccc(N(C)C)cc1)N1CCc2ccccc21` (stereo not given), the inhibition is -13.6%. The figure for `O=C(O)c1ccc(N2C(=O)c3[nH]nc(-c4ccccc4)c3C2c2cccc(F)c2)cc1` (stereo not given) is 14.1%; for `COc1ccccc1C(=O)Nc1cc(-c2ccc(C)cc2)no1` it is 15.5%; for `Cc1ccccc1Cn1c(CN2CCN(c3cc(Cl)ccc3C)CC2)nc2c1c(=O)[nH]c(=O)n2C` it is -24.3%. The figure for `COc1ccc(CCNC(=O)CCc2c(C)c3cc4c(C)coc4cc3oc2=O)cc1` is -3.34%; for `Cc1ccc(Cl)cc1NC(=O)CCCN1C(=O)CCn2nc(-c3cn(C)c4ccccc34)cc21` it is -3.38%. `CCOc1ccc(CCNC(=O)CCn2c(=O)c3cccn3c3cccnc32)cc1`: the inhibition worked out at 7.36%. As to `CC1Cc2cc(S(=O)(=O)CCC(=O)Nc3ccc(Cl)cc3F)ccc2N1C(=O)C1CC1` (stereo not given), the inhibition was -3.39%. As for `CC1CN(C(=O)/C(C#N)=C2\N=C(NC(=O)c3ccccc3Cl)c3ccccc32)CC(C)O1` (stereo not given), the inhibition was active: 58.9%. Turning to `COc1ccc(CCC(=O)NCc2nc3cccnc3n2Cc2ccccc2)cc1`, the inhibition is -1.02%. With `CC(C)Oc1ccc(C(=O)Nc2ccc(-c3nc4ccccc4s3)cc2)cc1`, the inhibition was -8.57%. Turning to `O=C(CSc1nc2ccccc2nc1Cc1ccccc1)N1CCN(c2ccccc2)CC1`, the inhibition was found to be 4.47%. On to `CC(=O)Nc1cc(-c2ccccc2)nn1Cc1cccc(Cl)c1`, for which the inhibition is -5.74%. The figure for `CCc1ccccc1Nc1nn2c(=O)c3ccc(C(=O)Nc4ccc(OC)cc4)cc3nc2s1` is 7.99%; for `COC(=O)c1nnn(CC(=O)NC(=O)Nc2ccccc2F)c1C(=O)OC` it is 7.32%. As for `Cc1noc(NS(=O)(=O)c2ccc(NC(=O)c3ccc(Br)cc3)cc2)c1C`, the inhibition was -6.67%. With `Cc1ccc2oc(C(=O)Nc3nnc(CC(C)C)s3)cc(=O)c2c1`, the inhibition is -5.53%. Consider `CCN(CC)c1cc(C)nc2nc(-c3ccc(C)cc3)nn12`, for which the inhibition is -15.2%.

In the case of `Cc1ccc(CN2CCSc3ccc(C(=O)Nc4ccc(F)cc4F)cc32)cc1`, the inhibition is -13.8%. Turning to `COc1ccc(N2CCN(C(=O)c3cc4c(=O)n(Cc5ccccc5)ccc4nc3C)CC2)cc1`, the inhibition turned out to be 4.82%. The figure for `COc1cc(CNCc2c(C(=O)O)c(C)n(Cc3cccc(Cl)c3)c2C)cc(OC)c1OC` is 12.9%; for `CCC(C(=O)N1CCN(c2cc(Cl)ccc2C)CC1)n1nc(C)n2c(cc3occc32)c1=O` (stereo not given) it is -5.35%; for `COc1ccc(Br)cc1CNC(=O)C(C)n1nc(C)n2c(cc3occc32)c1=O` (stereo not given) it is 11.6%. Turning to `CCc1cccc(NC(=O)CN2C(=O)CCc3cc(S(=O)(=O)N4CCOCC4)ccc32)c1`, the inhibition is 11.7%. For `Cc1c(C(N)=O)nnn1-c1ccc(Br)cc1`, the inhibition was found to be 15.3%. For `CCN(CC)CCNC(=O)C1CCCN(c2ncnc3onc(C)c23)C1` (stereo not given), the inhibition is 5.35%. Regarding `Cc1ccc(C)c(-c2csc(-c3c(N)c(C(=O)c4ccc5c(c4)OCO5)n4ccccc34)n2)c1`, the inhibition was -7.97%. On to `CCOC(=O)c1c(S(=O)(=O)N2CCCC(C(=O)N3CCN(c4ccc(F)cc4)CC3)C2)c(C)n(C)c1C` (stereo not given), for which the inhibition is 17.9%. With `COc1ccc(CCNC(=O)Cn2nc(C)n3c(cc4occc43)c2=O)cc1OC` the figure was 0.562%. Turning to `COc1ccc(CCNC(=O)Cn2ncc3c(C)n(Cc4ccccc4F)c(C)c3c2=O)cc1OC`, the inhibition worked out at 2.33%. The figure for `Cc1cccc(NC(=O)Cn2c(=O)oc3cc(S(=O)(=O)NCc4ccccc4)ccc32)c1` is 0.163%; for `CCn1cc(C(=O)OCC(=O)Nc2cc(Cl)ccc2OC)c(=O)c2ccc(C)nc21` it is 13.6%. The figure for `COc1ccc(Br)cc1C1CC(=O)Nc2c1c(C)nn2-c1nc(C)cc(C)n1` (stereo not given) is 15.3%; for `Cc1ccc2nc(N(Cc3cccnc3)C(=O)C3CCCCC3)sc2c1` it is 11%. With `COc1ccc(NC(c2ccc(F)cc2)c2nnc(-c3ccccc3Cl)o2)cc1Cl` (stereo not given) the figure was 3.98%. Turning to `Cc1cc2c(=O)c(C(=O)c3ccncc3)cn(CC(=O)Nc3cccc(C)c3C)c2cc1C`, the inhibition was 3.87%.

Take `Cc1oc(-c2ccc(C(=O)NCc3ccc(N(C)C)cc3)cc2)nc1COc1ccccc1`: the inhibition is -0.184%.

`CC(NC(=O)CN(C)S(=O)(=O)c1ccc2c(c1)c(=O)n(C)c(=O)n2C)c1ccccc1` (stereo not given): the inhibition was -9.78%. As for `Cc1cc(=O)n(CC(=O)NCCC(C)C)c2c1c(C)nn2C`, the inhibition turned out to be 2.05%. As for `Cn1cc(S(=O)(=O)N2CCCCC2)cc1C(=O)N1CCN(c2ccc(F)cc2)CC1`, the inhibition was 9.86%. With `Cc1ccc2c(c1)c(=O)c(C(=O)c1ccncc1)cn2CC(=O)Nc1c(C)cccc1C`, the inhibition was -8.84%. As to `CCc1ccc(NC(=O)CSc2nccn2C2CCCC2)cc1`, the inhibition is 12.5%. As to `Cc1ccc(C)c(S(=O)(=O)c2cnc(SCC(=O)Nc3ccc(F)cc3F)[nH]c2=O)c1`, the inhibition is -12.3%. Turning to `Cc1ccc(CNCc2c(C(=O)O)n(Cc3ccccc3C)c3cc(C)ccc23)cc1`, the inhibition is -1.65%. For `Cc1ccc(CC2C(=O)N(CC(=O)O)C(=O)C2C)cc1` (stereo not given), the inhibition is active: 30.9%.

For `Clc1ccc(-c2csc(N/N=C/c3ccc4c(c3)OCO4)n2)cc1`, the inhibition is active: 34.8%. Consider `CC1CCCCN1C(=S)NCc1ccccc1` (stereo not given), for which the inhibition is active: 31.9%. With `COc1cc(OC)c(NC(=O)CCn2cnc3onc(-c4ccc(F)cc4)c3c2=O)cc1Cl`, the inhibition is -10.9%. Regarding `CCOc1ccc(NC(=O)N(Cc2c[nH]c3ccccc23)C2CCCCC2)cc1`, the inhibition was 18%. Consider `Nc1cc(=O)nc(SCC(=O)Nc2ccc(F)cc2)n1-c1ccc(Cl)cc1`, for which the inhibition is 2.26%. With `Cc1oc(-c2cccc(Cl)c2)nc1CN1CCC(C(=O)NCCCN2CCN(c3cccc(Cl)c3)CC2)CC1` the figure was -11.9%. For the molecule `Cc1ccc(S(=O)(=O)Nc2cccc(-c3ccc(N4CCCCC4)nn3)c2)s1`, the inhibition was -0.919%. As for `CC(=O)c1cccc(NC(=O)c2nc(-c3ccc(C)cc3)n3c2CCCCC3)c1`, the inhibition was -16.5%. For the molecule `Cc1cccc(NC(=O)C2CCCN(S(=O)(=O)c3cccc4nonc34)C2)c1` (stereo not given), the inhibition is -2.86%. As for `Cc1ccc(NC(=O)C(=O)NCc2ccc(Cl)cc2)cc1`, the inhibition was -7.41%. Turning to `CCOC(=O)C(C)Sc1nnc2ccc3ccccc3n12` (stereo not given), the inhibition came out at 5.05%. The figure for `COc1ccc(C2(CNC(=O)C(=O)Nc3cccc(C(F)(F)F)c3)CCCC2)cc1OC` is -4.85%. As for `CCOc1ccccc1C(=O)NCc1ccc2c(c1)CCN2C(C)=O`, the inhibition was found to be 13.9%. Regarding `Cc1ccc(C2c3[nH]c4ccccc4c3CCN2C(=O)Nc2ccc(C)c(C)c2)cc1` (stereo not given), the inhibition turned out to be 13.9%. For `COc1ccc(NC(=O)c2sc3nc4c(cc3c2N)CN(Cc2ccccc2)CC4)cc1`, the inhibition was -9.8%. With `COc1ccc(C(=O)NCCc2sc(-c3ccc(F)cc3)nc2C)cc1OC` the figure was 0.699%; with `CC1CCC(NC(=O)C2(C)Cc3ccccc3C(=O)N2Cc2ccc(F)cc2)CC1` (stereo not given), 5.73%; with `CCCCN(C)Cc1c(O)ccc2c(-c3ccccc3)cc(=O)oc12`, active: 64.1%. The figure for `CCC(C(=O)NC1CCCCC1)n1c(SCc2ccc(F)cc2)nc2ccncc21` (stereo not given) is -19.5%.

`CCC(Cn1nnc2ccccc2c1=O)NC(=O)Nc1ccc(C)cc1C` (stereo not given): the inhibition was found to be 18.6%. On to `Cc1cccc(-c2nc(CSc3nncn4c3cc3oc(C)cc34)c(C)o2)c1`, for which the inhibition amounted to 20%. Take `COc1ccccc1OCC(=O)Nc1nc2c(s1)CC(C)CC2` (stereo not given): the inhibition was 12.5%. As to `CCSc1ncc(Cl)c(C(=O)Nc2c(C(=O)Nc3cccc(C)c3)oc3ccccc23)n1`, the inhibition was found to be 21.1%.

With `Cc1ccc2nc(-c3ccc(Cl)cc3)cc(C(=O)OCC(=O)c3ccccc3)c2c1`, the inhibition was -4.37%. For the molecule `Cc1cccc(NCc2nc3ccccc3n2CCOc2ccccc2C)c1`, the inhibition is -3.71%. `COc1ccc(NC(=O)c2c(C)oc3ccc(O)c(CN4CCCC4)c23)cc1Cl`: the inhibition worked out at 4.3%. With `COc1cc(C(=O)n2nc(-c3ccco3)nc2NCc2ccc(Cl)cc2)cc(OC)c1OC` the figure was -6.16%; with `Cc1ccc(Nc2nc(N)nc(CN3CCN(C(=O)c4ccco4)CC3)n2)cc1Cl`, active: 38.5%; with `CC(=O)c1cccc(Nc2ccc3cc(S(=O)(=O)N4CCC(C)CC4)ccc3n2)c1`, 1.81%.

Source of the values: PubChem BioAssay AID485344 (National Center for Advancing Translational Sciences (NCATS), 2010).
